Experimental data taken from article PMC4336329 (PLoS ONE, 2015).
About 2,200 (0.71%) of roughly 310,000 compounds showed an effect of 50% or more. Effects have a minus sign here. The list shows a part of the results.

Biological target: human ether-à-go-go-related gene (hERG) potassium channel (human, UniProt Q12809)
Assay: primary screen, population patch clamp on CHO cells stably expressing hERG

human ether-à-go-go-related gene (hERG) potassium channel, sequence (Q12809 whole entry, looked up): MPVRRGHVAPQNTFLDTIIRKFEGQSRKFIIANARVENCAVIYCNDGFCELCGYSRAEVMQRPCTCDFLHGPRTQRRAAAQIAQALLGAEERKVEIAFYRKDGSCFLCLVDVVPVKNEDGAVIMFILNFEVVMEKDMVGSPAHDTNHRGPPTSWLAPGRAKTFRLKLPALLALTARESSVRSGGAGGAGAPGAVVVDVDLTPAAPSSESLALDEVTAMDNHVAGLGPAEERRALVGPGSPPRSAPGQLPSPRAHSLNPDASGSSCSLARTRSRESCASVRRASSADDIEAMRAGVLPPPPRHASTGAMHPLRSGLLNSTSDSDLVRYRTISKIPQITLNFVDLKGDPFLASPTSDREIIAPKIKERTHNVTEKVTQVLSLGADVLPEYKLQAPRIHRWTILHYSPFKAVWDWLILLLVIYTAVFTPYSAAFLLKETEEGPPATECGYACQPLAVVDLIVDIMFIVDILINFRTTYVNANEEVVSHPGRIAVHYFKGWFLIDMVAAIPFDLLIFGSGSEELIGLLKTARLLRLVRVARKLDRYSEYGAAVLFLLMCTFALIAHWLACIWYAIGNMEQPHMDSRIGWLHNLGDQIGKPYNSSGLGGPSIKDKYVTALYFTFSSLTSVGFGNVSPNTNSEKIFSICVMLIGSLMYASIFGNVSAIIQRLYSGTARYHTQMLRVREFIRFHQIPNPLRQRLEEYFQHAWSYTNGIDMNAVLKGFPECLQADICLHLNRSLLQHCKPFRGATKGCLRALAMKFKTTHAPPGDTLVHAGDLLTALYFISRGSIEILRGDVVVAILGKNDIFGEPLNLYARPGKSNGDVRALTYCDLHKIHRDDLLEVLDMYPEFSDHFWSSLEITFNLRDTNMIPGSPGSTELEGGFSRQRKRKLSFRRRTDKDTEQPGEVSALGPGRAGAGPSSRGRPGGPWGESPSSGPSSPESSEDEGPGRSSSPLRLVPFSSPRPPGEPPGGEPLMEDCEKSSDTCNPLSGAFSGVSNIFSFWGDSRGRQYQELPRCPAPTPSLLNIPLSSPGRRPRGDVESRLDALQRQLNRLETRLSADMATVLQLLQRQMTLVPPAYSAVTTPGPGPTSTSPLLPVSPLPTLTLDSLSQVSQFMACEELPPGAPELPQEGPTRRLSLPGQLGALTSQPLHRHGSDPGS

Compound | hERG current change (%, negative = inhibition) at 1uM [%]
CN(Cc1ccccc1)C(=O)COC(=O)c1ccc(Cl)cc1N | 2.03
Cc1nc2ccc(Cl)cc2c(=O)n1-c1cccc(Cl)c1 | 12.2
O=C(NC(=S)NCc1ccccc1)c1ccc(Br)o1 | 10.4
CCCCC(=O)Nc1ccc(NC(=S)NC(=O)CCCCl)cc1OC | 7.01
Cc1nn(Cc2c(F)c(F)c(F)c(F)c2F)c(C)c1NC(=O)c1cccc(COc2ccc(Cl)cc2)c1 | 13.5
Cl.N[C@@H](Cc1ccccc1)c1nnc(SC/C=C/c2ccccc2)o1 | 5.22
O=C(OCn1nnc2ccccc2c1=O)c1cc(-c2ccccc2)nc2ccccc12 | 13.7
CC(C)(C)c1ccc(/C=N/NC(=O)CN2CCS(=O)(=O)CC2)cc1 | 5.54
OCCC1CN(Cc2ccc(Oc3ncccn3)cc2)CCN1C1CCCC1 (stereo not shown) | 16.2
CC(Sc1ccccc1)C(=O)NN=C1CCCC1 (stereo not shown) | 10
COc1ccc(C2C(Oc3ccccc3C)C(=O)N2Cc2ccc(F)cc2)cc1OC (stereo not shown) | 9.12
Cc1ccc(/C=C(\C#N)C(=O)NCCN2CCOCC2)cc1 | 12.6
CC1=NN(C(=O)Cc2ccc(C)cc2)C(O)(c2cccnc2)C1 (stereo not shown) | 12.2
COc1ccc(-c2nnc(NC(=O)Cc3ccccc3)o2)cc1 | 18.8
CCC1CCCCN1CCCNC(=O)CS(=O)Cc1nc(-c2ccc(OC)c(OC)c2)oc1C (stereo not shown) | 9.24
CN(C)S(=O)(=O)c1cccc(COC(=O)CCNC(=O)c2ccc([N+](=O)[O-])cc2)c1 | 1.84
O=c1cc2c(nn1Cc1ccc(Cl)cc1Cl)-c1ccccc1CC2 | 12.8
N#Cc1c(-c2ccc(F)cc2)cc(-c2ccccc2)nc1SCC(=O)NCC(=O)O | -2.31
COc1ccccc1-c1nn(-c2ccccc2)cc1C(=O)NCC(c1ccco1)N1CCCC1 (stereo not shown) | -2.33
COC(=O)c1cc(OC)c(OC)cc1N=CC1=C(O)CC(C)(C)CC1=O | 12.1
Cc1cc(NC(=O)C(C)SCC(=O)OCc2ccc(Cl)cc2Cl)no1 (stereo not shown) | 9.29
COc1ccc(/C=N/NC(=O)c2cccc(NC(=O)c3ccccc3Cl)c2)cc1 | 4.12

Compound | hERG current change (%, negative = inhibition) at 1uM [%]
N#C/C(=C\c1ccc(-c2nc3ccccc3s2)o1)C(N)=O | 13.7
COc1cccc(CN(C)C(=O)CCN=C2NS(=O)(=O)c3ccccc32)c1OC | 14.8
CC(=O)N1c2ccc(S(=O)(=O)N3CCC(C(=O)Nc4cccc(C)n4)CC3)cc2CC1C (stereo not shown) | 14.4
CC12C(=O)N(n3cnnc3)C(=O)C1C1C=CC2C1 (stereo not shown) | 2.37
Cc1cccc(N2CCN(C(=O)C3CC(=O)N(c4ccc5c(c4)OCCO5)C3)CC2C)c1 (stereo not shown) | 4.65
Cl.NC(CO)C12CC3CC(CC(C3)C1)C2 (stereo not shown) | 14.7
O=C(O)c1ccc(CN2C(=O)CSC2=S)cc1 | -1.81
O=C1N(Cc2ccccc2)CCCC12CCCN(Cc1ccccc1)C2=O | 5.61
O=C(NCC1CCCO1)c1cc(-c2ccccc2)nc2ccccc12 (stereo not shown) | 6.61
CCCCOc1ccc(C(=O)N/N=C/c2ccc(OCCN3CCCCC3)c(OC)c2)cc1 | -4.69
C=C(C)CNC(=O)c1ccc(OC2CCN(C(=O)COC)CC2)cc1 | 13.3
CC(=O)Nc1cc2nn(-c3ccccc3)nc2cc1C | 13.1
O=C(Cc1ccccc1F)Nc1nc2ccccc2[nH]1 | 0.695
O=C(CSc1ccc2nnc(-c3ccccn3)n2n1)Nc1ccc(F)cc1F | -1.28
COc1cc(NC(=O)CSc2nc3cc(C)ccc3cc2C)c(C(=O)O)cc1OC | 2.36
O=C1C2C3C=CC(C3)C2C(=O)N1c1n[nH]c(-c2cccnc2)n1 (stereo not shown) | 11.8
Cc1ccc(C(=O)N2CCC(C(=O)NCc3cccnc3)CC2)cc1 | 2.44
C=CCc1cccc2cc(C(=O)N(C)C)c(=O)oc12 | 7.52
COc1cccc(NS(=O)(=O)c2c(C)cc(C)cc2C)c1 | 5.14
Cc1cc2cc3c(cc2nc1SCC(=O)OC(C)C)OCCO3 | 12
COc1ccc(C)cc1N(CC(=O)N1CCCC1)S(=O)(=O)c1ccccc1 | 19.1
